Assay results taken from PMC4574297, “A mitochondria-anchored isoform of the actin-nucleating spire protein regulates mitochondrial division” (eLife, 2015).

Molecular target: T1, INF2-CT, the C-terminal half of inverted formin 2 (amino acids 469-1249, containing FH1, FH2 and C-terminal … (human, UniProt Q27J81 469-1249))
T1 construct: inverted formin 2 (INF2), residues 469-1249, FH1, FH2 and C-terminal regions; also called C-terminal half of INF2; source: purified as described (Ramabhadran et al., 2012)
T1 sequence (Q27J81 469-1249): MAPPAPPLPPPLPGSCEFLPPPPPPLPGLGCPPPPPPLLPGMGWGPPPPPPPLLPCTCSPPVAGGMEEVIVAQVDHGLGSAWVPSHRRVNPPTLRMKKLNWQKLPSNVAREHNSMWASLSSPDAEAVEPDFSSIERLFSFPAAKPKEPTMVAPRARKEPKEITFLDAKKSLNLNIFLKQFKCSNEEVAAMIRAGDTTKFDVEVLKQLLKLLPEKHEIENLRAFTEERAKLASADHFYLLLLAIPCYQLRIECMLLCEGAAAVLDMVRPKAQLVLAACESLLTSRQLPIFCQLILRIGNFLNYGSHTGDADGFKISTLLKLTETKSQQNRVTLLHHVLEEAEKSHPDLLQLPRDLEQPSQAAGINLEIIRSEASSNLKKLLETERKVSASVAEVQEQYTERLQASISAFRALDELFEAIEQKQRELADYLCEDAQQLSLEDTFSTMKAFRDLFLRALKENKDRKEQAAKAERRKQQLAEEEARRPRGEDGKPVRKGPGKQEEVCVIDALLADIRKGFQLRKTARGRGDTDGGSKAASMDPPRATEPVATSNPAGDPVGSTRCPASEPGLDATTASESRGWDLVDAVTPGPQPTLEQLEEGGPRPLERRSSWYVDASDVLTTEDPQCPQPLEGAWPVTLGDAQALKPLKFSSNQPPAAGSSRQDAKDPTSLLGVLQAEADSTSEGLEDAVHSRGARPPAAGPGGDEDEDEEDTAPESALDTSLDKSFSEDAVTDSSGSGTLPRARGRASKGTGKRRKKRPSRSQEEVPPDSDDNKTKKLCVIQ
Test: pull-down; 20 μM GST or GST-Spire1 KIND bound to glutathione-sepharose beads; 1 μM INF2-CT and/or 10 μM INF2-NT; binding buffer 50 mM KCl, 1 mM MgCl2, 1 mM EGTA, 10 mM Hepes-HCl pH 7.4, 1 mM DTT, 0.02% thesit; incubated overnight, washed once; SDS-PAGE of the pellet
Settings: both partners purified

binding result: binds
B1: INF2-NT, the N-terminal half of inverted formin 2 ([…], containing DID and dimerization region) (domain or fragment)
chain: not shown
notes: inverted formin 2 (INF2), […], DID and dimerization region; also called N-terminal half of INF2; source: purified as described (Ramabhadran et al., 2012)
